This is one part of the list. Sequences were assembled here from the parent chain. Inactive controls read about 0.05.
B1: TEV protease; numbered along this chain (parent)
chain: MGESLFKGPRDYNPISSSICHLTNESDGHTTSLYGIGFGPFIITNKHLFRRNNGTLVVQSLHGVFKVKDTTTLQQHLVDGRDMIIIRMPKDFPPFPQKLKFREPQREERICLVTTNFQTKSMSSMVSDTSCTFPSGDGIFWKHWIQTKDGQCGSPLVSTRDGFIVGIHSASNFTNTNNYFTSVPKNFMELLTNQEAQQWVSGWRLNADSVLWGGHKVFMVKPEEPFQPVKEATQL

Variants of: B1
Assay: raw area under fraction-flipped curve 0-4 h after induction (AUC4h, not background-subtracted), DNA-recorder readout of cleavage of the substrate (dimensionless); higher = more cleavage of the substrate by the protease variant
Conditions: temperature: 34 °C; time window: 0-4 h after rhamnose induction
Description: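 In vivo DNA recorder in E. coli TOP10(DE3) ΔrhaA at 34 °C. Each TEVp single-site mutant (parent TEVp 0) is paired with a single-site variant of the 7-mer TEVs (canonical ENLYFQ|S). The substrate sits between flexible linkers in a Bxb1-sfGFP-TEVs-SsrA fusion, so cleavage stabilises Bxb1 and speeds flipping of a recombination array, read by NGS. The value is the raw area under the fraction-flipped curve over 0-4 h after rhamnose induction (AUC4h), with ≥20 reads per time point. It is not background-subtracted; inactive controls average about 0.047.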
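Further: Bxb1 expression induced with 0.2% (w/v) L-rhamnose at OD600 near 0.5, cultures sampled hourly, flipped fraction per protease–substrate barcode pair counted by paired-end Illumina sequencing.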

Variant	area with substrate ENLYFQA	area with substrate ENLYFQC	area with substrate ENLYFQE	area with substrate ENLYFQG	area with substrate ENLYFQI	area with substrate ENLYFQK	area with substrate ENLYFQL	area with substrate ENLYFQM	area with substrate ENLYFQN	area with substrate ENLYFQR	area with substrate ENLYFQS	area with substrate ENLYFQV	area with substrate ENLYFQW	area with substrate ENLYFQY	area with substrate ENLYFQD	area with substrate ENLYFQF	area with substrate ENLYFQP	area with substrate ENLYFQQ	area with substrate ENLYFQT	area with substrate ENLYFQH
F140E	0.0605	0.0673	0.0729	0.0563	0.0595	0.064	0.0636	0.0621	0.0617	0.056	0.0627	0.063	0.0462	0.0242						
L156I	0.092	0.127	0.0666	0.108	0.053		0.0741	0.102	0.0632	0.063	0.097	0.068		0.0691	0.0797	0.0786	0.0687	0.0699	0.0573	
Y34F	0.0597			0.105	0.0557	0.0637		0.0586	0.0391	0.0568	0.0974	0.0611	0.0525	0.0929	0.0555				0.0619	0.0594
N52H	0.0538	0.0719			0.0619	0.0857	0.0504	0.0467	0.0613	0.0541	0.071	0.0797	0.0443	0.0564		0.0392			0.0563	
R106W	0.0797	0.105		0.102	0.0629	0.066	0.0658	0.0784	0.0854	0.0661	0.1	0.0604	0.0651	0.0828	0.0808	0.0796	0.0538	0.0649	0.0706	0.0932
H47S	0.0616	0.077	0.0614	0.0642	0.0611	0.0628	0.0576	0.0602	0.0593	0.0554	0.0602	0.0576	0.055	0.0866	0.0576			0.0538	0.0518	
N53T	0.0743			0.0321	0.0646		0.0709	0.0844	0.0734		0.0883	0.0699	0.0554						0.0639	0.0748
Y12E	0.106	0.145	0.0762			0.038	0.0789	0.0786	0.0829	0.06	0.0983		0.0637	0.0792	0.0864		0.072		0.0684	0.101
C20D	0.0423			0.0501	0.0311	0.038	0.0484	0.0365	0.0397		0.0418	0.0367	0.0413		0.0463		0.0364		0.0363	0.0662
V113T	0.0827	0.0966		0.0731	0.0478	0.0535	0.048	0.0658	0.0655		0.0774	0.0579	0.0302		0.0493	0.0728		0.053	0.0631	0.0753
C20G	0.0615	0.0665	0.0525								0.0652		0.0404							0.0677
S17V	0.0876	0.104	0.0629	0.102	0.078	0.0414	0.0683	0.09	0.0668		0.0969	0.072	0.07	0.0679	0.0748	0.0829	0.0558	0.0907	0.0802	0.0821
L156M	0.0978	0.0957	0.0513	0.0878	0.0628	0.0677	0.0623		0.0745	0.0631	0.0945	0.0528	0.0675		0.0745	0.09	0.0691	0.0844	0.0765	0.0821
N45K	0.0677	0.0519	0.0576	0.0668	0.0525	0.0696	0.0537	0.0544	0.0692	0.0582	0.0598		0.0557	0.0601		0.0323	0.0541		0.042	0.0663
T159L	0.0965	0.121		0.108	0.0549	0.0732	0.0484	0.093	0.0426	0.0656	0.0998	0.0641	0.0645	0.0796				0.0786		0.08
K46Y	0.073	0.0837	0.0774	0.159	0.0418	0.0482	0.0553	0.0382	0.0552	0.059	0.0621	0.0541	0.0599		0.063	0.0474		0.0448		0.0538
H47I	0.0526	0.0561	0.0581		0.0623	0.0628	0.0565		0.0533	0.0648	0.0604	0.0556	0.0487	0.0671	0.0638	0.0711	0.016		0.0538	0.0667
K68Q	0.108	0.13			0.0614	0.072	0.0647		0.0914	0.057	0.106	0.0576	0.0632	0.0886			0.0496	0.0977	0.0648	0.0659
V58K	0.0434			0.0259					0.0438		0.0509	0.0374		0.0367						
R81L	0.101	0.102		0.0776		0.0674	0.0481	0.0853	0.066	0.0532	0.0998		0.064			0.0636	0.0633	0.0594	0.0639	
G80R	0.0772	0.0652			0.0352	0.0295		0.117	0.0733	0.0605	0.098	0.0463	0.0629		0.0689				0.0615	
W212F	0.121	0.107			0.0695	0.0629		0.0845	0.0982		0.121		0.0773					0.0063	0.0478	0.114
A207Y	0.0801						0.076	0.106	0.0816	0.0504	0.0897	0.0657								
L211C	0.0904	0.0985	0.0759	0.0951		0.0634	0.0824	0.102			0.109		0.0611	0.0877	0.059				0.0602	0.112
S17N	0.0984	0.0788		0.108	0.0575	0.0672	0.0652	0.0879	0.0728	0.0565	0.104		0.0619	0.076	0.0819		0.0531	0.0655	0.0537	0.0789
